# Reference: PMC6919601, “Identification of Plasmodium dipeptidyl aminopeptidase allosteric inhibitors by high throughput screening” (PLoS ONE, 2019)
# Screen size: about 110,000 compounds; about 230 (0.21%) showed an effect of 50% or more. This is one part of the list.
# Biological target: DPAP1 (Plasmodium falciparum, UniProt Q8IIJ9)
# Experiment: primary screen, percent inhibition; read by cleavage of a fluorogenic dipeptide substrate; higher = more effect of the substance
# Design: species or system P. falciparum D10 trophozoite lysates; single well
# 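Note: 30 min substrate incubation versus DMSO and 10 µM JCP410 controls.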
# Sequence of DPAP1 (Q8IIJ9 whole entry, looked up): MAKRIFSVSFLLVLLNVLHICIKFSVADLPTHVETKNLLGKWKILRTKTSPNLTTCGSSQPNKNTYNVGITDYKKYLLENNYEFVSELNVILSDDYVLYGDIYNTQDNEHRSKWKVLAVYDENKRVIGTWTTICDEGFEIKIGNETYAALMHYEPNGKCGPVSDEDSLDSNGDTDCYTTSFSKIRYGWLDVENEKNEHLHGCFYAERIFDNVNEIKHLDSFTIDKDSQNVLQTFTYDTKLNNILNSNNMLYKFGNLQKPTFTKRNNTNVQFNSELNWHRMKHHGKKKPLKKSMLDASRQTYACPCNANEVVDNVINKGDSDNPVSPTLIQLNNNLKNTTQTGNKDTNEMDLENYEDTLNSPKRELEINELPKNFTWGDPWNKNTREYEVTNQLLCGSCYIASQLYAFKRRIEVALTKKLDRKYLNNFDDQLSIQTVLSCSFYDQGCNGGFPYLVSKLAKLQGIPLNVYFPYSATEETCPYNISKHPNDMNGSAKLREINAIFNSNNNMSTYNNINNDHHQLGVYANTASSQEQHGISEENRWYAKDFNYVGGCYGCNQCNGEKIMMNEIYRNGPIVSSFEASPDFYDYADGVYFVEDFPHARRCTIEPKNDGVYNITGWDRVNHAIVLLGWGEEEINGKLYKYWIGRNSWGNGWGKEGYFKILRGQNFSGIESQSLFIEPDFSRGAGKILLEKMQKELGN
row,SMILES,% Inhibition @ 10 uM [%]
1,CCOc1cc(/C=C2\S/C(=N/c3ccc(C(=O)O)cc3)N(C)C2=O)ccc1O,2.22
2,CCOC(=O)c1[nH]c2ccccc2c1NC(=O)C(C)(C)Oc1ccc(Cl)cc1,3.49
3,CN1C/C(=C\c2ccc3nccnc3c2)C(=O)/C(=C/c2ccc3nccnc3c2)C1,0.287
4,CCNC(=O)NS(=O)(=O)c1cnccc1Nc1cccc(Cl)c1,-0.116
5,COc1cc(-c2nc3s/c(=C\c4cccs4)c(=O)n3n2)cc(OC)c1OC,6.96
6,Cc1sc(NC(=O)c2cc3cc(Br)ccc3oc2=O)nc1-c1cccs1,-4.18
7,O=C(NCc1ccco1)c1cccc2c1C(=O)N(CC1CCCO1)C2 (stereo not shown),5.13
8,COc1cccc(NC(=O)CSc2ccccn2)c1,-5.34
9,O=C1Cc2ccccc2C1=C1Cc2ccccc2C1,-4.68
10,NC(=O)/C(=C/c1ccccc1)NC(=O)c1ccc(Br)o1,12.2
11,Nc1c(C(=O)Nc2cccc(F)c2)sc2nc(-c3ccc4c(c3)OCO4)ccc12,-1.57
12,CCOC(=O)c1c(C)[nH]c(C)c1S(=O)(=O)NCC(C)c1ccccc1 (stereo not shown),-4.78
13,Cc1cc(C)c2nc(N3CCCC(C(=O)NCc4ccc(F)cc4)C3)sc2c1 (stereo not shown),7.91
14,Cc1ccc(/C(O)=C/C=N/C(Cc2c[nH]c3ccccc23)C(=O)O)cc1 (stereo not shown),4.3
15,Nc1c(C(=S)Nc2ccccc2)c(=O)nc2ccccn12,-3.65
16,Oc1cccc(/C=N/c2c(-c3ccco3)nc3ccccn23)c1,14.3
17,COc1cc(/C=C2/C(=N)N3OC(C)=CC3=NC2=O)ccc1OCCCOc1ccccc1,-3.23
18,COc1cccc([C@H]2NCC[C@@]3(O)CCCC[C@H]23)c1O,1.66
19,COc1ccc(-c2noc(N3CCC(C(=O)N4CC(C)CC(C)C4)CC3)n2)cc1 (stereo not shown),1.07
20,O=C(CCN1C(=O)c2ccccc2C1=O)N1CCCCC1,3.65
21,CCCCC(=O)C1=C(N2CCCC2)CC(C)(C)CC1=O,-1.64
22,O=C(NCc1cccnc1)Nc1ccccc1Cl,-10.9
23,COc1cccc(-c2coc3cc4oc(=O)ccc4cc23)c1,-1.37
24,Cc1ccc(/C=C(\NC(=O)c2ccccc2)C(=O)Nc2cccc(Cl)c2C)o1,4.09
25,COc1cc2oc(=O)c(CC(=O)N3CCCC3)c(C)c2cc1Cl,-0.808

row,SMILES,% Inhibition @ 10 uM [%]
1,CCCCN(CCCC)CCNC(=O)c1ccc(CNS(=O)(=O)c2ccc(C)cc2)cc1,1.69
2,COc1ccccc1NC(=O)C(=O)NCC(C)C,-1.5
3,Oc1c2nc3ccccc3c-2ncn1CCN1CCC(Cc2ccccc2)CC1,3.24
4,Cc1ccc2occ(CC(=O)N(Cc3ccccc3)Cc3ccco3)c2c1,-4.19
5,COc1ccc(N2CCN(C(=O)c3ccc(CNS(=O)(=O)c4cccc(OC)c4)cc3)CC2)cc1,-7.25
6,COc1ccc(-c2cc(C(=O)NCC3CCCO3)c3ccccc3n2)c(OC)c1 (stereo not shown),-4.77
7,CN(CC(=O)NCc1ccco1)c1nnc(N2CCCC2=O)s1,-0.698
8,Cc1cccc(C)c1NC(=O)/C=C/c1ccc(C(C)C)cc1,-3.87
9,COc1ccc(CNC(=O)CCN2C(=O)c3ccncc3C2=O)cc1OC,4.61
10,COC(=O)C1=C(C)NC(=O)CC1c1cc([N+](=O)[O-])ccc1Cl (stereo not shown),-2.18
11,Cc1ccc(C(=O)Nc2sc3c(c2C(N)=O)CCC(C)C3)o1 (stereo not shown),2.92
12,O=C(O)c1cccc(COc2ccc(Cl)cc2Cl)c1,6.01
13,NC(=O)COc1ccc(-c2ccccc2)cc1,3.25
14,CCN(Cc1ccccc1)C(=O)Cn1cc(S(=O)(=O)NC)c(S(=O)(=O)NC)c1,-4.18
15,COc1ccc(-c2cs/c(=N\c3ccccc3C)n2CCO)cc1,0.83
16,COc1cc2c(cc1OC)-c1nnc(C)n1C1(CCCC1)C2,4.66
17,COc1ccc(CCNC(=O)/C=C/c2ccco2)cc1,3.47
18,COc1cccc2c1OC1(C)CC2C(S(=O)(=O)c2ccc(C(C)(C)C)cc2)C(=O)N1C (stereo not shown),-2.67
19,O=C1/C(=C/c2ccc(F)cc2)CCC1C1CCCC1 (stereo not shown),23.4
20,O=C1C2CCCCN2C(=O)N1CCCCN1CCN(c2ccc(F)cc2)CC1 (stereo not shown),-5.81
21,CCCCNC(=O)c1cnn2c(C(F)F)cc(-c3ccc(OC)cc3)nc12,1.67
22,CCCS(=O)(=O)N1CCC(C(=O)NCCCN2CCCCC2C)CC1 (stereo not shown),4.81
23,COc1ccc(CCCC(=O)Nc2ccc3ccccc3c2)cc1,-1.84
24,CC1CCN(CC(=O)Nc2nc(-c3ccccc3)cs2)CC1,-7.15
25,COc1cc(C(=O)Nc2c(C)nn(Cc3ccc(Br)cc3)c2C)cc(OC)c1OC,0.35

row,SMILES,% Inhibition @ 10 uM [%]
1,O=[N+]([O-])c1ccc(CNc2ccc(F)c(Cl)c2)s1,3.19
2,CCn1c(C(=O)O)c(CNCCc2c[nH]c3ccccc23)c2ccccc21,3.54
3,CCC(C)NS(=O)(=O)c1ccc(OCC(=O)Nc2cc(C(F)(F)F)ccc2Cl)cc1 (stereo not shown),-1.6
4,COc1cccc(C2=N/C(=C\c3cc(Br)ccc3OC)C(=O)O2)c1,0.434
5,CCOC(=O)C1=C(NC(=O)CC)c2ccccc2CC12CCCCC2,4.15
6,CCCOc1cccc(C(=O)Nc2nc(-c3ccc(F)cc3F)cs2)c1,5.55
7,COc1ccc(-c2[nH]nc3nc(-c4ccc(O)c(OC)c4)cc(C(=O)O)c23)cc1,-2.97
8,COc1ccc(C2=NCC(S)=Nc3ccc(Cl)cc32)cc1OC,1.88
9,O=C(O)COc1c(Br)cc(C=C2C(=O)NC(=O)NC2=O)cc1Br,-2.26
10,Cc1ccc(CNC(=O)CN(C)S(=O)(=O)c2c(C)cc(C)cc2C)cc1,-1.16
11,CC(CN(C)CCc1ccccn1)c1ccccc1 (stereo not shown),-4.04
12,O=C(c1ccccc1Cl)N1CCN(CCN2C(=O)c3cccc4cccc(c34)C2=O)CC1,-0.622
13,CSc1nc(N)c(C#N)c(-c2ccc(Br)cc2)c1C#N,-0.906
14,Cc1nn(CC(=O)N2CCN(c3ccccn3)CC2)c(=O)c2c1sc1ccccc12,1.31
15,Cc1ccccc1OCC(=O)NCCN1CCCC1,-1.04
16,CN(Cc1ccccc1)C(=O)Cn1cc(S(=O)(=O)N2CCCC2)c(S(=O)(=O)N2CCCC2)c1,3.2
17,CSc1nc(-c2ccc(C)cc2)nc2c1Cc1c(CO)cnc(C)c1O2,1.68
18,COc1ccc(N(CC(=O)N2CCN(c3ccccc3)CC2)S(=O)(=O)c2ccccc2)cc1OC,-7.69
19,O=C(NCc1cccnc1)c1cc2nc(-c3cccs3)cc(C(F)(F)Cl)n2n1,2.95
20,Cc1oc(-c2ccc(Cl)cc2)nc1CS(=O)CC(=O)NCCN1CCOCC1 (stereo not shown),0.689
21,Cc1nc2c(c(C)c1CCC(=O)N1CCC(Cc3ccccc3)CC1)c(=O)n(C)c(=O)n2C,2.12
22,CCCC(=O)Nc1nnc(S(=O)(=O)N(C)Cc2ccco2)s1,-10.1
23,Cn1c(=O)[nH]c(=O)c2c1nc(S)n2CC(O)COc1ccc2ccccc2c1 (stereo not shown),30.7
24,CS(=O)(=O)C1=NSC2=NC(=O)/C(=C\c3ccc(OCc4ccccc4F)cc3)C(=N)N21,-1.58
25,CCOC(=O)N1CCN(C(=O)COc2cc(C)c(Cl)c(C)c2)CC1,5.75

row,SMILES,% Inhibition @ 10 uM [%]
1,COc1cccc(C2=NN(C(C)=O)C(C)(C)O2)c1,0.907
2,O=c1oc2ccc(Cl)cc2cc1-c1nc(-c2ccc3c(c2)OCO3)no1,1.93
3,O=C(NCCCc1nc2ccccc2n1CCCOc1ccc(Cl)cc1)c1ccco1,6.78
4,CCOc1cc(S(=O)(=O)n2c(C)nc3ccccc32)ccc1F,3.93
5,C=CCNC(=O)C1CCCN(S(=O)(=O)N(CC)CC)C1 (stereo not shown),-2.26
6,Cc1ccccc1OCC(O)CN1C(=O)c2ccccc2C1=O (stereo not shown),6.91
7,COc1ccc(OC)c(NC(=O)c2sc3nc(-c4ccc(F)cc4)ccc3c2N)c1,0.161
8,Cc1ccc(CCN2CC(C(=O)NCc3ccccc3Cl)CC2=O)cc1 (stereo not shown),3.24
9,O=C(O)C1CCN(S(=O)(=O)c2ccc(C(F)(F)F)cc2)CC1,9.57
10,CCc1c(C#N)c(S)nc2c1CCC2,88.7
11,Cc1cccc(CS(=O)(=O)Cc2ccc(C(=O)NCCN3CCCCC3C)o2)c1 (stereo not shown),-4.53
12,O=C(CN1CCCCC1)Nc1ccc2c(c1)OCO2,-3.09
13,CN1CCN(CC(=O)Nc2ccccc2)CC1,0.843
14,COc1ccc(-c2c(Cc3ccccc3)nn3c(O)c4c(nc23)CCC4)cc1,-7.19
15,CCCCc1c(C(=O)O)cc(OC)cc1C(=O)O,-4.01
16,CCC(Cc1ccccc1)NC(=O)CN1C(=O)CSc2nc(C)cc(C)c21 (stereo not shown),1.03
17,CC(C)CC(=O)Nc1ccc(N2CCOCC2)c2nonc12,-2.88
18,Cc1ccnc(NC(=O)C(C)Oc2ccccc2C)c1 (stereo not shown),2.93
19,C=CCN1CCN(c2ccncc2S(=O)(=O)NCC)CC1,-1.59
20,CCC1CCCCN1CCCNC(=O)C1c2cc(OC)c(OC)cc2C(=O)N(C)C1c1cccs1 (stereo not shown),2.59
21,COc1ccc(CNC2CCN(C(C)=O)CC2)cc1,3.48
22,Brc1ccccc1OCCCCCn1ccnc1,3
23,CNc1oc(Cc2cccc3ccccc23)nc1C#N,-2.83
24,O=C(CN(Cc1ccccc1)S(=O)(=O)c1ccc(F)cc1)Nc1cccc2ccccc12,-6.27
25,COc1cccc(Nc2nc(-c3ccc(Cl)cc3)cs2)c1,-6.18
